{"source": "PubChem BioAssay AID1508624", "about": "(National Center for Advancing Translational Sciences (NCATS), 2021)", "note": "The campaign covered roughly 48,000 compounds. About 120 (0.25%) were called active. Inconclusive results, whose numbers are uncertain, are shown with a selection of clear calls. Calls come from the whole dose curve; as a rule, active = well fitted activation curve with a large enough effect; inconclusive = small, poorly fitted or top-dose-only effect, or another doubt; inactive = no such curve, though single readings can be large or run the other way. Potencies of inconclusive entries are doubtful fits and often do not repeat. Potency is the fitted concentration of half-maximal effect; tags give direction and shape of the fitted curve."}
{"experiment": "Primary qHTS for Identification of Small Molecule Activators of Huntingtin-Antisense Promoter Activity; note: nearly all actives have a fitted effect of over 55% in size", "conditions": "HEK293 HTT-AS promoter firefly luciferase reporter, 24 h; activity change, positive = activation: at 57.5 µM (top of the series), percent change from vehicle, -100% = no light", "in_short": "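Firefly luciferase readout (Dual-Glo, 10 min RT) after 24 h, 37 °C compound exposure (final up to 57.5 uM) of HEK293 reporter cells cultured 24 h beforehand; PTC124 at 50 uM final as control inhibitor; activity scaled vehicle 0%, zero RLU -100%.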"}
{"smiles": "Nc1ncnc2c1ncn2[C@@H]1O[C@@H](CO)[C@H](O)[C@H]1O", "Potency": "inconclusive: 4.85 µM [activator, partial curve]"}
{"smiles": "OCCN1CCN(c2ncnc3c2cnn3-c2cccc(Cl)c2)CC1", "Potency": "inconclusive: 14.1 µM [activator, partial curve, poor fit]"}
{"smiles": "COc1ccc(NC(=O)CN2C(=O)C(C)(C)c3ccccc32)cc1Cl", "activity change, positive = activation": "inactive: -12.2% [at 11.5 µM, percent change from vehicle, -100% = no light]"}
{"smiles": "CCOc1ccc(C2CC(=O)NC(NC(=O)c3ccc(C)cc3)=N2)cc1", "note": "(centres undefined)", "Potency": "inconclusive: 15.8 µM [activator, partial curve]"}
{"smiles": "Cc1ccc(C(=O)Nc2nnc(S(=O)(=O)N(C)Cc3ccco3)s2)cc1", "Potency": "inconclusive: 11.2 µM [activator, partial curve, poor fit]"}
{"smiles": "Cc1cccc(-n2nnc(-c3nc(-c4ccccc4)no3)c2N)c1C", "Potency": "inconclusive: 0.199 µM [activator, full curve, poor fit]"}
{"smiles": "Cc1ccc(CN(C(=O)c2ccc(F)cc2)c2ccccn2)o1", "activity change, positive = activation": "inactive: -13.3%"}
{"smiles": "c1cc(-c2cnn3cc(-c4ccc(OCCN5CCCCC5)cc4)cnc23)ccn1", "activity change, positive = activation": "inactive: -24.4%"}
{"smiles": "Cc1ccc(NC(=O)/C(C#N)=C/c2ccccc2Cl)cc1C", "Potency": "inconclusive: 4.47 µM [activator, partial curve]"}
{"smiles": "O=C(Nc1ccc(C(=O)N2CCCCC2)cc1)c1nsc2ccccc12", "Potency": "inconclusive: 0.178 µM [activator, full curve, poor fit]"}
{"smiles": "CNc1ccc(-c2nc(-c3ccccc3C)no2)cc1[N+](=O)[O-]", "Potency": "inconclusive: 0.282 µM [activator, full curve]"}
{"smiles": "COc1ccc(-c2cc(C(=O)Oc3ccc(C)cc3)c3ccccc3n2)cc1", "Potency": "inconclusive: 39.8 µM [activator, single point]"}
{"smiles": "Cc1ccc(S(=O)(=O)c2cnc(SCC(=O)Nc3ccc4c(c3)OCCO4)[nH]c2=O)cc1Cl", "activity change, positive = activation": "inactive: -1.84%"}
{"smiles": "Cc1ccc(-n2ncc3c(N(C)C)ncnc32)cc1Cl", "activity change, positive = activation": "inconclusive: 61% [activator]"}
{"smiles": "O=C(Nc1ccc(-c2nc3ccccc3o2)c(O)c1)c1ccccc1", "Potency": "inconclusive: 2 µM [activator, full curve, poor fit]"}
{"smiles": "Cc1ccc(C(=O)Nc2nnc(S(=O)(=O)N3CCCCCC3)s2)cc1", "Potency": "inconclusive: 14.1 µM [activator, partial curve, poor fit]"}
{"smiles": "Cc1ccc(S(=O)(=O)N(CC(O)Cn2c3ccccc3c3ccccc32)c2cccc(C(=O)N(C)C)c2)cc1", "note": "(centres undefined)", "activity change, positive = activation": "inactive: -43.2%"}
{"smiles": "COc1ccc(NC(=O)C2=C(C)Nc3ncnn3C2c2ccc(C)o2)cc1", "note": "(centres undefined)", "activity change, positive = activation": "inconclusive: -49.3% [activator]"}
{"smiles": "CC1(C)CC(=O)c2cc(C(=O)Nc3ccc(Br)cc3)c(=O)[nH]c2C1", "Potency": "inconclusive: 1 µM [activator, full curve, poor fit]"}
{"smiles": "Cc1ccc(-c2nc3ccccn3c2Nc2ccc3c(c2)OCCO3)s1", "Potency": "inconclusive: 39.8 µM [activator, single point]"}
{"smiles": "Cc1ccccc1NCc1cccn1-c1nnc(N2CCOCC2)s1", "activity change, positive = activation": "inactive: -8.64%"}
{"smiles": "Cc1c(-c2nsc(NC(=O)c3cccs3)n2)nnn1-c1ccc(Cl)cc1", "Potency": "inconclusive: 1.26 µM [activator, partial curve, poor fit]"}
{"smiles": "O=C(Cn1nc2c(cc1=O)CCCC2)NCc1ccccc1", "Potency": "inconclusive: 11.2 µM [activator, partial curve, poor fit]"}
{"smiles": "CCc1cccc(NC(=O)CSc2nccn2C)c1", "Potency": "inconclusive: 15.8 µM [activator, partial curve]"}
{"smiles": "CCOC(=O)c1cc(S(=O)(=O)Nc2cc(C)c(Cl)cc2OC)[nH]n1", "activity change, positive = activation": "inconclusive: 12.2% [activator]"}
{"smiles": "O=C(Nc1ccccc1C(F)(F)F)C1CCN(c2nnc(-n3cccc3)s2)CC1", "activity change, positive = activation": "inactive: -7.19%"}
{"smiles": "CC(=O)c1ccc(NC(=O)CSc2nnc(NC(=O)NC3CCCCC3)s2)cc1", "Potency": "inconclusive: 1.78 µM [activator, full curve, poor fit]"}
{"smiles": "CCN(CC)CCOC(=O)c1ccc(NC(=O)c2nn(C)c3c2COc2ccccc2-3)cc1", "Potency": "inconclusive: 1.78 µM [activator, full curve, poor fit]"}
{"smiles": "COc1ccccc1NC(=O)c1cc(S(=O)(=O)N2CCN(c3ccccc3Cl)CC2)ccc1F", "activity change, positive = activation": "inactive: -10.6%"}
{"smiles": "O=C(O)c1ccc(Nc2nc3ccccc3n3cnnc23)cc1", "Potency": "inconclusive: 2.24 µM [activator, partial curve, poor fit]"}
{"smiles": "O=C(COc1ccc(Br)cc1Cl)Nc1ncn[nH]1", "Potency": "active: 8.91 µM"}
{"smiles": "CCNc1ccc(-c2nc(-c3ccccn3)no2)cc1[N+](=O)[O-]", "Potency": "inconclusive: 0.316 µM [activator, full curve, poor fit]"}
{"smiles": "COc1ccc(-c2onc(C)c2C)cc1S(=O)(=O)NCC(C)c1ccccc1", "note": "(centres undefined)", "activity change, positive = activation": "inactive: -30.7%"}
{"smiles": "O=C(C=Cc1ccc(CN(CCO)CCc2c[nH]c3ccccc23)cc1)NO", "Potency": "inconclusive: 2.17 µM [activator, full curve]"}
{"smiles": "O=c1c2cnn(-c3ccc(F)cc3)c2ncn1Cc1cccc(Cl)c1", "activity change, positive = activation": "inconclusive: -8.18% [activator]"}
{"smiles": "COC(=O)COc1ccc2oc(-c3ccc(OC)cc3)cc(=O)c2c1", "Potency": "inconclusive: 8.91 µM [activator, partial curve, poor fit]"}
{"smiles": "CCCSc1nnc2c(n1)OC(c1ccc(Br)s1)Nc1ccccc1-2", "note": "(centres undefined)", "Potency": "inconclusive: 3.16 µM [activator, full curve]"}
{"smiles": "CC(=O)Nc1ccc(C(=O)O)cc1", "activity change, positive = activation": "inconclusive: 13.3% [activator]"}
{"smiles": "Cc1c(Cl)cccc1NC(=O)Cn1cc(C(=O)C2CCCCC2)c2ccccc21", "activity change, positive = activation": "inactive: -82.3%"}
{"smiles": "Fc1ccccc1-n1ncc2c1ncn1nc(-c3ccccc3Cl)nc21", "Potency": "inconclusive: 0.891 µM [activator, full curve, poor fit]"}
{"smiles": "CC1CCC(NC(=O)c2ccc3c(c2)N(Cc2ccccc2)C(=O)c2ccccc2S3(=O)=O)CC1", "note": "(centres undefined)", "Potency": "inconclusive: 14.1 µM [activator, partial curve]"}
{"smiles": "COc1ccccc1CNC(=O)CCc1c(C)nc2c(c(C)nn2-c2ccc(C)c(C)c2)c1C", "activity change, positive = activation": "inconclusive: -64.4% [activator]"}
{"smiles": "Cc1cccc(Nc2c(-c3cccs3)nc3nc(C)cc(C)n23)c1", "Potency": "inconclusive: 35.5 µM [activator, single point]"}
{"smiles": "COC(=O)c1cccc(Nc2c(-c3ccc(OC)cc3)nc3nc[nH]n23)c1", "Potency": "inconclusive: 1.41 µM [activator, partial curve, poor fit]"}
{"smiles": "CC(=O)ON=C1C(c2c(O)[nH]c3cc(Br)ccc23)=Nc2ccccc21", "Potency": "inconclusive: 0.685 µM [activator, full curve]"}
{"smiles": "CC(C)c1ccc(Nc2ncnc3c2nc2n3CCCC2)cc1", "Potency": "inconclusive: 0.316 µM [activator, full curve, poor fit]"}
{"smiles": "CNC(=O)c1ccccc1Sc1ccc2c(C=Cc3ccccn3)n[nH]c2c1", "Potency": "inconclusive: 0.0217 µM [activator, full curve]"}
{"smiles": "CCOc1ccc(NC(=O)Cn2c(=O)n(Cc3ccccc3)c(=O)c3sc4ccccc4c32)cc1", "activity change, positive = activation": "inconclusive: -81% [activator]"}
{"smiles": "CCOC(=O)c1cc(NC(=O)c2ccccc2)c(=O)n2c1oc1ccc(Cl)cc12", "activity change, positive = activation": "inactive: 1.31%"}
{"smiles": "O=C(Nc1ccc2oc(-c3cccnc3)nc2c1)c1ccccc1F", "Potency": "inconclusive: 22.4 µM [activator, single point]"}
{"smiles": "Cc1ccc(C(=O)c2oc3ccccc3c2NC(=O)c2cc(-c3ccccc3)on2)cc1", "Potency": "inconclusive: 2 µM [activator, full curve]"}
{"smiles": "CCOC(=O)c1c(NC(=O)c2ccc(S(=O)(=O)N3CCCC(C)C3)cc2)sc2c1CC(C)(C)NC2(C)C", "note": "(centres undefined)", "activity change, positive = activation": "inconclusive: -39.1% [activator]"}
{"smiles": "Cc1ccc(O)c(NC(=O)c2cc(-c3ccc(F)cc3)on2)c1", "Potency": "inconclusive: 5.62 µM [activator, full curve]"}
{"smiles": "COc1ccc(-c2nc3ccccc3o2)cc1NC(=O)COc1ccc(C)c(C)c1", "Potency": "inconclusive: 25.1 µM [activator, partial curve, poor fit]"}
{"smiles": "CCCCC[C@H](O)C=C[C@H]1[C@H](O)CC(=O)[C@H]1CCCCCCC(=O)O", "Potency": "inconclusive: 43.2 µM [activator, partial curve, poor fit]"}
{"smiles": "Cc1ccc(Cl)cc1-n1ncc2c(NCCc3ccccc3)ncnc21", "Potency": "inconclusive: 2.24 µM [activator, partial curve, poor fit]"}
{"smiles": "Cc1cccc(CSc2cn(CC(=O)N3CCOCC3)c3ccccc23)c1", "Potency": "inconclusive: 5.62 µM [activator, partial curve]"}
{"smiles": "O=C(NCc1cccs1)c1ccc2c(c1)sc1nc(-c3ccc(F)cc3)cn12", "Potency": "inconclusive: 2.51 µM [activator, single point]"}
{"smiles": "CCOC(=O)c1cccc(NC(=O)Cn2ncc3c(=O)oc4ccccc4c32)c1", "activity change, positive = activation": "inactive: -1.57%"}
{"smiles": "CCOc1ccc2nc(N3CCCC(C(=O)NCCc4ccc(Cl)cc4)C3)sc2c1", "note": "(centres undefined)", "Potency": "inconclusive: 2.82 µM [activator, single point]"}
{"smiles": "COc1cccc(/C=C/c2nc(C#N)c(N3CCN(C)CC3)o2)c1", "Potency": "inconclusive: 7.94 µM [activator, partial curve, poor fit]"}
{"smiles": "Fc1cccc(CSc2ccc(-c3cccs3)nn2)c1", "Potency": "inconclusive: 8.91 µM [activator, partial curve, poor fit]"}
{"smiles": "Cc1nn2cc(-c3ccc(OC(C)C)cc3)nc2s1", "Potency": "inconclusive: 0.178 µM [activator, full curve, poor fit]"}
{"smiles": "O=c1[nH]cnc2c1ncn2[C@@H]1O[C@H](CO)[C@@H](O)[C@H]1O", "activity change, positive = activation": "inactive: 3.83%"}
